# Assay results: the supplement of paper PMC8728848
# This is one part of the list.
# B1: TIM1 (protein)
# chain: ADGIQSVKVGGEAGPSVTLPCHYSGAVTSMCWNRGSCSLFTCQNGIVWTNGTHVTYRKDTRYKLLGDLSRRDVSLTIENTAVSDSGVYCCRVEHRGWFNDMKITVSLEIVPPHHHHHH
# Assays:
# Assay in all cases: glycan array binding signal (z-score within array); higher = stronger binding
# Settings in all cases: glycan notation: IUPAC condensed, linker removed
# [1] = biological target: GlcNAc(b1-4)GlcNAc(b1-4)GlcNAc(b1-4)GlcNAc(b1-4)GlcNAc(b1-4)GlcNAc
# Summary of the method: (§1)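 The binding signal is a Z-score computed within each array and averaged over linkers. Arrays of the same protein sequence at different concentrations or buffers were also averaged together. Data originate from 3228 arrays in the Consortium for Functional Glycomics database, kept only where the protein sequence was available.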
# [2] = biological target: GlcNAc(b1-4)[GlcNAc(b1-6)]GalNAc
# Summary of the method: as §1
# [3] = biological target: GlcNAc(b1-6)Gal(b1-4)GlcNAc
# Summary of the method: as §1
# GlcNAc(b1-6)GalNAc = biological target: GlcNAc(b1-6)GalNAc
# Summary of the method: as §1
# [4] = biological target: GlcNAc6S(b1-3)Gal(b1-4)GlcNAc
# Summary of the method: as §1
# Kdn(a2-3)Gal(b1-3)GalNAc = biological target: Kdn(a2-3)Gal(b1-3)GalNAc
# Summary of the method: as §1
# Kdn(a2-3)Gal(b1-3)GlcNAc = biological target: Kdn(a2-3)Gal(b1-3)GlcNAc
# Summary of the method: as §1
# Kdn(a2-3)Gal(b1-4)Glc = biological target: Kdn(a2-3)Gal(b1-4)Glc
# Summary of the method: as §1
# Kdn(a2-3)Gal(b1-4)GlcNAc = biological target: Kdn(a2-3)Gal(b1-4)GlcNAc
# Summary of the method: as §1
# [5] = biological target: Kdn(a2-3)Gal(b1-4)[Fuc(a1-3)]GlcNAc
# Summary of the method: as §1
# Kdn(a2-6)Gal(b1-4)GlcNAc = biological target: Kdn(a2-6)Gal(b1-4)GlcNAc
# Summary of the method: as §1
# [6] = biological target: Man(a1-2)Man(a1-2)Man(a1-3)Man
# Summary of the method: as §1
# [7] = biological target: Man(a1-2)Man(a1-2)Man(a1-6)[Man(a1-3)]Man
# Summary of the method: as §1
# Man(a1-2)Man(a1-3)Man = biological target: Man(a1-2)Man(a1-3)Man
# Summary of the method: as §1
# [8] = biological target: Man(a1-2)Man(a1-3)[Man(a1-2)Man(a1-6)]Man
# Summary of the method: as §1
# [9] = biological target: Man(a1-2)Man(a1-3)[Man(a1-2)Man(a1-6)]Man(a1-6)[Man(a1-2)Man(a1-2)Man(a1-3)]Man
# Summary of the method: as §1
# [10] = biological target: Man(a1-2)Man(a1-3)[Man(a1-2)Man(a1-6)]Man(a1-6)[Man(a1-2)Man(a1-2)Man(a1-3)]Man(b1-4)GlcNAc(b1-4)GlcNAc
# Summary of the method: as §1
# [11] = biological target: Man(a1-2)Man(a1-3)[Man(a1-6)]Man(a1-6)[Man(a1-2)Man(a1-3)]Man(b1-4)GlcNAc(b1-4)GlcNAc
# Summary of the method: as §1
# [12] = biological target: Man(a1-2)Man(a1-6)[Man(a1-3)]Man(a1-6)[Man(a1-2)Man(a1-2)Man(a1-3)]Man
# Summary of the method: as §1
# [13] = biological target: Man(a1-2)Man(a1-6)[Man(a1-3)]Man(a1-6)[Man(a1-2)Man(a1-2)Man(a1-3)]Man(b1-4)GlcNAc(b1-4)GlcNAc
# Summary of the method: as §1
# Man(a1-3)[Man(a1-6)]Man = biological target: Man(a1-3)[Man(a1-6)]Man
# Summary of the method: as §1
# [14] = biological target: Man(a1-3)[Man(a1-6)]Man(a1-6)[Man(a1-2)Man(a1-3)]Man(b1-4)GlcNAc(b1-4)GlcNAc
# Summary of the method: as §1
# [15] = biological target: Man(a1-3)[Man(a1-6)]Man(a1-6)[Man(a1-3)]Man
# Summary of the method: as §1
# [16] = biological target: Man(a1-3)[Man(a1-6)]Man(a1-6)[Man(a1-3)]Man(b1-4)GlcNAc(b1-4)GlcNAc
# Summary of the method: as §1
# [17] = biological target: Man(a1-3)[Man(a1-6)]Man(b1-4)GlcNAc(b1-4)GlcNAc
# Summary of the method: as §1
# [18] = biological target: Man(a1-3)[Man(a1-6)]Man(b1-4)GlcNAc(b1-4)[Fuc(a1-6)]GlcNAc
# Summary of the method: as §1
# Man(a1-6)Man = biological target: Man(a1-6)Man
# Summary of the method: as §1
# Man(b1-4)GlcNAc = biological target: Man(b1-4)GlcNAc
# Summary of the method: as §1
# MurNAc(b1-4)GlcNAc = biological target: MurNAc(b1-4)GlcNAc
# Summary of the method: as §1
# Neu5Ac(a2-3)Gal = biological target: Neu5Ac(a2-3)Gal
# Summary of the method: as §1
# [19] = biological target: Neu5Ac(a2-3)Gal(b1-3)GalNAc
# Summary of the method: as §1
# [20] = biological target: Neu5Ac(a2-3)Gal(b1-3)GalNAc(b1-3)Gal(a1-4)Gal(b1-4)Glc
# Summary of the method: as §1
# [21] = biological target: Neu5Ac(a2-3)Gal(b1-3)GalNAc(b1-4)[Neu5Ac(a2-3)]Gal(b1-4)Glc
# Summary of the method: as §1
# [22] = biological target: Neu5Ac(a2-3)Gal(b1-3)GalNAc(b1-4)[Neu5Ac(a2-8)Neu5Ac(a2-3)]Gal(b1-4)Glc
# Summary of the method: as §1
# [23] = biological target: Neu5Ac(a2-3)Gal(b1-3)GalNAc6S
# Summary of the method: as §1
# [24] = biological target: Neu5Ac(a2-3)Gal(b1-3)GlcNAc
# Summary of the method: as §1
# [25] = biological target: Neu5Ac(a2-3)Gal(b1-3)GlcNAc(b1-2)Man
# Summary of the method: as §1
# [26] = biological target: Neu5Ac(a2-3)Gal(b1-3)GlcNAc(b1-2)Man(a1-3)[GlcNAc(b1-4)][Neu5Ac(a2-3)Gal(b1-3)GlcNAc(b1-2)Man(a1-6)]Man(b1-4)GlcNAc(b1-4)GlcNAc
# Summary of the method: as §1
# [27] = biological target: Neu5Ac(a2-3)Gal(b1-3)GlcNAc(b1-2)Man(a1-3)[Neu5Ac(a2-3)Gal(b1-3)GlcNAc(b1-2)Man(a1-6)]Man(b1-4)GlcNAc(b1-4)GlcNAc
# Summary of the method: as §1
# [28] = biological target: Neu5Ac(a2-3)Gal(b1-3)GlcNAc(b1-3)Gal(b1-3)GlcNAc
# Summary of the method: as §1
# [29] = biological target: Neu5Ac(a2-3)Gal(b1-3)GlcNAc(b1-3)Gal(b1-4)GlcNAc
# Summary of the method: as §1
# [30] = biological target: Neu5Ac(a2-3)Gal(b1-3)GlcNAc(b1-3)GalNAc
# Summary of the method: as §1
# [31] = biological target: Neu5Ac(a2-3)Gal(b1-3)GlcNAc(b1-4)Gal(b1-4)Glc
# Summary of the method: as §1
# [32] = biological target: Neu5Ac(a2-3)Gal(b1-3)GlcNAc(b1-6)GalNAc
# Summary of the method: as §1
# [33] = biological target: Neu5Ac(a2-3)Gal(b1-3)GlcNAc6S
# Summary of the method: as §1
binder,measurement,setting,value
B1,glycan array binding signal (z-score),[1],-0.196
same,glycan array binding signal (z-score),[2],-0.196
same,glycan array binding signal (z-score),[3],-0.288
same,glycan array binding signal (z-score),GlcNAc(b1-6)GalNAc,-0.196
same,glycan array binding signal (z-score),[4],-0.142
same,glycan array binding signal (z-score),Kdn(a2-3)Gal(b1-3)GalNAc,0.111
same,glycan array binding signal (z-score),Kdn(a2-3)Gal(b1-3)GlcNAc,-0.158
same,glycan array binding signal (z-score),Kdn(a2-3)Gal(b1-4)Glc,0.036
same,glycan array binding signal (z-score),Kdn(a2-3)Gal(b1-4)GlcNAc,-0.254
same,glycan array binding signal (z-score),[5],-0.116
same,glycan array binding signal (z-score),Kdn(a2-6)Gal(b1-4)GlcNAc,-0.063
same,glycan array binding signal (z-score),[6],-0.236
same,glycan array binding signal (z-score),[7],-0.274
same,glycan array binding signal (z-score),Man(a1-2)Man(a1-3)Man,-0.239
same,glycan array binding signal (z-score),[8],-0.292
same,glycan array binding signal (z-score),[9],-0.26
same,glycan array binding signal (z-score),[10],-0.213
same,glycan array binding signal (z-score),[11],-0.202
same,glycan array binding signal (z-score),[12],-0.199
same,glycan array binding signal (z-score),[13],-0.285
same,glycan array binding signal (z-score),Man(a1-3)[Man(a1-6)]Man,-0.233
same,glycan array binding signal (z-score),[14],0.218
same,glycan array binding signal (z-score),[15],-0.149
same,glycan array binding signal (z-score),[16],-0.168
same,glycan array binding signal (z-score),[17],-0.147
same,glycan array binding signal (z-score),[18],-0.082
same,glycan array binding signal (z-score),Man(a1-6)Man,-0.034
same,glycan array binding signal (z-score),Man(b1-4)GlcNAc,-0.175
same,glycan array binding signal (z-score),MurNAc(b1-4)GlcNAc,-0.251
same,glycan array binding signal (z-score),Neu5Ac(a2-3)Gal,-0.22
same,glycan array binding signal (z-score),[19],0.3
same,glycan array binding signal (z-score),[20],-0.249
same,glycan array binding signal (z-score),[21],-0.178
same,glycan array binding signal (z-score),[22],-0.213
same,glycan array binding signal (z-score),[23],-0.243
same,glycan array binding signal (z-score),[24],-0.239
same,glycan array binding signal (z-score),[25],-0.28
same,glycan array binding signal (z-score),[26],-0.235
same,glycan array binding signal (z-score),[27],-0.25
same,glycan array binding signal (z-score),[28],-0.26
same,glycan array binding signal (z-score),[29],-0.267
same,glycan array binding signal (z-score),[30],-0.228
same,glycan array binding signal (z-score),[31],-0.155
same,glycan array binding signal (z-score),[32],0.039
same,glycan array binding signal (z-score),[33],-0.234
